This is an account of results in PubChem BioAssay AID1508624 (National Center for Advancing Translational Sciences (NCATS), 2021).

Among all 48,000 compounds or so, about 120 (0.25%) were called active. Not shown: some 4% with an inconclusive outcome. Calls come from the whole dose curve; as a rule, active = well fitted activation curve with a large enough effect; inconclusive = small, poorly fitted or top-dose-only effect, or another doubt; inactive = no such curve, though single readings can be large or run the other way. Some of the results follow.

The assay in a line: Primary qHTS for Identification of Small Molecule Activators of Huntingtin-Antisense Promoter Activity. Note: nearly all actives have a fitted effect of over 55% in size. Particulars: HEK293 HTT-AS promoter firefly luciferase reporter, 24 h; series mostly up to 57.5 µM; activity change, positive = activation: at the top concentration. In outline: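 HEK293 luciferase promoter-reporter cells (2,500/well) plated 24 h, then compounds added at up to 57.5 uM final for 24 h at 37 °C. Firefly luminescence by Dual-Glo, normalized to vehicle (0%) and zero RLU (-100%).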
For the molecule `COC(=O)c1ccc(CNC(=O)c2nc(Cn3nc(C)c(Br)c3C)no2)cc1`, the “activity change, positive = activation” value was inactive: -17%.

For `COc1cc2c(cc1OC)C(COc1cc(C)cc(C)c1)N(C(=O)c1ccc(S(=O)(=O)N3CCCC3)cc1)CC2` (stereo not given), the “activity change, positive = activation” value was inactive: -18.4%.

As for `O=C(CSc1nc2c([nH]c3ccccc32)c(=O)n1-c1cccc(Cl)c1)NCc1ccccc1`, the “activity change, positive = activation” value is inactive: -32.9%.

Regarding `CCc1nnc(NC(=O)CSc2nc3c([nH]c4ccccc43)c(=O)n2-c2ccc(C)cc2)s1`, the “activity change, positive = activation” value was inactive: -25.6%.

As for `CCc1nc2ccc(C(=O)N3CCN(c4cccc(OC)c4)CC3)cc2nc1CC`, the “activity change, positive = activation” value was inactive: -4.74%.

As to `Cc1ccc(C)c(-c2ccc(=O)n(Cc3ccc(F)cc3Cl)n2)c1`, the “activity change, positive = activation” value is inactive: -39.1%.

With `CCOC(=O)C1CCCN(C(=O)Cn2ncc3c4ccccc4n(Cc4ccc(F)cc4)c3c2=O)C1` (stereo not given), the “activity change, positive = activation” value was inactive: -16.4%.

As for `O=C(COc1ccccc1)Nc1sc2c(c1C(=O)Nc1ccccc1)CCCCC2`, the “activity change, positive = activation” value was inactive: 10.3%.

Take `CN(C)N=Nc1nc[nH]c1C(N)=O`: the “activity change, positive = activation” value is inactive: -16.3%.

Take `CCN(CC)S(=O)(=O)c1ccc2c(c1)N(CC(=O)NCc1ccc(F)cc1)C(=O)CO2`: the “activity change, positive = activation” value was inactive: -10.2%.

Take `Cc1cc(N2CCN(c3cccc(C(F)(F)F)c3)CC2)n2nc(-c3ccccc3C)nc2n1`: the “activity change, positive = activation” value was inactive: 1.3%.

Consider `Cc1ccc2oc(=O)c3cnn(CC(=O)N4CCN(c5cccc(C(F)(F)F)c5)CC4)c3c2c1`, for which the “activity change, positive = activation” value is inactive: -0.464%.

Consider `CCC(C)NC(=O)CSc1nc2c(sc3ccccc32)c(=O)n1CCc1ccccc1` (stereo not given), for which the “activity change, positive = activation” value was inactive: -5.24%.

With `O=S(=O)(c1cccc(C(F)(F)F)c1)N1CCC(Oc2ccc(-n3cnnn3)cc2)CC1`, the “activity change, positive = activation” value is inactive: -47.1%.

Take `COc1ccc(NC(=O)C2=C(C)Nc3c(C(=O)Nc4ccc(C)cc4)cnn3C2c2cc(OC)ccc2OC)cc1` (stereo not given): the “activity change, positive = activation” value is inactive: -2.63%.

Consider `COc1cccc(NC(=O)Cn2c(=O)n(Cc3ccccc3)c(=O)c3c2c2cc(C)ccc2n3C)c1`, for which the “activity change, positive = activation” value was inactive: -4.95%.

Turning to `O=C(Nc1ccc([N+](=O)[O-])cc1Cl)c1cc(Cl)ccc1O`, the “activity change, positive = activation” value is inactive: -88.8%.

As to `O=C(Nc1cccnc1)N1CCC(Cc2cccc(Oc3ccc(C(F)(F)F)cn3)c2)CC1`, the “activity change, positive = activation” value was inactive: -77.9%.

In the case of `CCCN1CCc2nc(SCC(=O)Nc3ccc(C)c(Cl)c3)[nH]c(=O)c2C1`, the “activity change, positive = activation” value was inactive: 13%.

In the case of `CN(C)c1ccc(C2CC(c3c(O)n(C4CCCCC4)c(=O)[nH]c3=O)=Nc3ccccc3S2)cc1` (stereo not given), the “activity change, positive = activation” value was inactive: -61.7%.

As for `O=C(Nc1ccccc1C(F)(F)F)Nc1c[nH]c(=O)[nH]c1=O`, the “activity change, positive = activation” value is inactive: -1.47%.

As for `COc1ccc(Nc2c(-c3ccco3)nc3cccc(C)n23)cc1`, the “activity change, positive = activation” value was inactive: -19.3%.

Take `CCN(CC)CC(=O)Nc1c(C)cccc1C(=O)OC`: the “activity change, positive = activation” value was inactive: -9.53%.

In the case of `Cc1ccc2c(C)c(C(=O)N3CCC(c4nc5ccccc5s4)CC3)oc2c1C`, the activity change, positive = activation is inactive: 6.98% [at 11.5 µM, percent change from vehicle, -100% = no light].

Regarding `COc1cc(OC)c(OC)cc1CN1CCc2nc(N3CCN(c4ccccc4F)CC3)ncc2C1`, the “activity change, positive = activation” value was inactive: -44.2%.
